According to PubChem BioAssay AID1346428 (National Center for Advancing Translational Sciences (NCATS), 2018):
The whole screen tested about 48,000 compounds, of which about 1,200 (2.5%) were called active. Inconclusive results (about 2%) are left out.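 Rule for the calls: active = activation of at least 60% and not above a set upper limit (about 1 call in 100 departs from these limits); inconclusive = activation of 40% to 60%, or above that upper limit; inactive = activation under 40%.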 The list shows a part of the results.

Target: Probable G-protein coupled receptor 32 (Homo sapiens) (UniProt O75388)
UniProt O75388, sequence (O75388 whole entry, looked up): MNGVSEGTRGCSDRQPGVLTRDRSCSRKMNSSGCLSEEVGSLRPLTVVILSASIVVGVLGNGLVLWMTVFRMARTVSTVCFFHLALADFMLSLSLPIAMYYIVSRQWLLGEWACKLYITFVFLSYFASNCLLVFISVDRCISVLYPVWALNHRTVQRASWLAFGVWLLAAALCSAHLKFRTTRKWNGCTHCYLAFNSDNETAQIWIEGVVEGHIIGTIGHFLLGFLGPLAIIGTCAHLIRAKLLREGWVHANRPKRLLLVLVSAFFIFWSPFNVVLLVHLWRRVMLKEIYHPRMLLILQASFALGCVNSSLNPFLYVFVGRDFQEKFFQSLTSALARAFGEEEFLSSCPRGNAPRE
Assay: qHTS for Agonists of Human Resolvin D1 Receptor DRV1; note: 0% is about no effect
Conditions: CHO-K1 GPR32 beta-arrestin PathHunter luminescence, 90 min; at 76.9 µM; hits give high values; zero percent set by DMSO-only wells
Procedure, shortened: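 Beta-arrestin recruitment read-out: luminescence from complemented beta-Gal in CHO-K1 GPR32 PathHunter cells, measured 1 h after detection reagent at ambient temperature following 90 min compound exposure at 37 °C; DMSO served as basal (EC0) control.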

activation, inactive:
Cc1cccc(-c2nn3c(=O)cc(CN4CCN(S(=O)(=O)c5ccc(Cl)cc5)CC4)nc3s2)c1 -7%
Cc1ccc(C)c(NC(=O)c2ccc3c(c2)CCN3S(C)(=O)=O)c1 3.24%
CCC1CCc2nc3sc(C(=O)Nc4ccc(F)c(Cl)c4)c(N)c3cc2C1 (stereo not drawn) 15.5%
COc1ccccc1C(=O)OCc1cc(=O)n2nc(C3CC3)sc2n1 -2.27%
COc1ccc(OC)c(NC(=O)CSc2c3c(nc4cc(Cl)ccc24)CCCC3)c1 -22.9%
NC(=O)CSc1nc2cc3c(cc2c(=O)n1CCCCCC(=O)NCc1ccc2c(c1)OCO2)OCO3 -11.4%
CC(=O)c1cccc(NC(=O)CCS(=O)(=O)c2ccc3c(c2)n(C)c(=O)c(=O)n3C)c1 0.158%
COc1ccc(OC)c(NC(=O)C2CCCN(S(=O)(=O)c3ccc4[nH]c(=O)ccc4c3)C2)c1 (stereo not drawn) -6.1%
O=C(Nc1ccccc1C(F)(F)F)C1(S(=O)(=O)c2ccc(Cl)cc2)CC1 2.9%
CN1CC(=O)N(CC(=O)Nc2cccc(C#N)c2)c2ccccc2C1=O 20.8%
Cc1ccc(CCNC(=O)c2cnc3c(C)cccn3c2=O)cc1 -8.62%
Cc1c(Cl)cccc1NC(=O)Nc1nnc(N(C)C2CCCCC2)s1 3.93%
COc1ccc(-c2cn3c(n2)sc2cc(C(=O)NCC(C)c4ccccc4)ccc23)cc1 (stereo not drawn) -0.528%
CCOC(=O)N1CCN(Cc2nc3cc(NC(=O)c4ccc(F)cc4)ccc3n2C(C)C)CC1 2.39%
CCOCCCNC(=O)C(NC(=O)C1CCC(C)CC1)C(C)C (stereo not drawn) 4.85%
CN(C1CCCCC1)S(=O)(=O)c1ccc2c(c1)c(=O)c(C(=O)N1CCN(c3ccc(F)cc3)CC1)cn2C -3.29%
Cc1ccc(C(=O)c2cn(Cc3cc(C)ccc3C)c3nc(C)ccc3c2=O)cc1 33.9%
CCCCCCNC(=O)CCc1c(C)nc2nc(-c3cc(OC)cc(OC)c3)nn2c1C -0.534%
CC(C)c1cc(C(=O)NCc2ccc(F)cc2)no1 -9.04%
CCS(=O)(=O)n1nc(-c2ccco2)nc1NCc1ccc(C(C)C)cc1 4.61%
CCc1ccccc1NC(=O)c1nn(-c2ccc(C)cc2)c(=O)c2c1c1ccccc1n2C -8.75%
CC(=O)Nc1ccc(NC(=O)C(NC(=O)C2CCC(C)CC2)C(C)C)cc1 (stereo not drawn) -1.82%
COc1ccc(C)cc1NC(=O)C1CCC(CNS(=O)(=O)c2ccc3c(c2)CCCC(=O)N3)CC1 (stereo not drawn) -4.1%
Cc1ccc(-n2cnc3cc(C(=O)NC4CCCCCC4)ccc32)c(C)c1 -0.111%
O=C(Nc1ccc(F)cc1)c1ccc(CN2CC(=O)N3CCCCC3C2=O)cc1 (stereo not drawn) -14.8%
CCc1ccc(Cn2nnc3c(=O)[nH]c(C4CCCN(C(=O)c5cccc(Cl)c5)C4)nc32)cc1 (stereo not drawn) 16.8%
CCn1cc2nc(SCC(=O)Nc3cc(OC)ccc3OC)n(Cc3ccc(Cl)cc3)c(=O)c2n1 -17.2%
Cc1ccc(-n2c(SCC(=O)N3CCc4ccccc43)nc3c([nH]c4ccccc43)c2=O)cc1 -2.8%
COc1cc(C2c3c(-c4cc(C)ccc4O)n[nH]c3C(=O)N2Cc2cccnc2)cc(OC)c1OC (stereo not drawn) -3.23%
CCOc1ccccc1NC(=O)c1ccc2c(c1)CCN2S(C)(=O)=O -15.7%
CCS(=O)(=O)N1CCc2cc(C(=O)Nc3cc([N+](=O)[O-])ccc3C)ccc21 22.9%
O=C(Nc1ccc(OC(F)(F)F)cc1)c1cc2c(=O)n3ccccc3nc2s1 21.4%
CC(C)(C)CC(C)(C)c1ccc(O)c(Cc2ccc(Cl)cc2Cl)c1 40.3%
COc1ccccc1CCNC(=O)Cn1ccc2cc(S(=O)(=O)N3CCCCC3)ccc21 -15%
CCCC(=O)Nc1nnc(SCc2cc(=O)n3ccccc3n2)s1 -12.3%
COc1ccc(C(=O)Nc2ccc3nc(SCC(=O)N4CCCC4)sc3c2)cc1 -3.9%
O=C(CCn1c(=O)c2cccn2c2cccnc21)N1CCN(c2ccc(F)cc2)CC1 -22.3%
Cn1c(=O)c(=O)n(C)c2cc(S(=O)(=O)N3CCCC3C(=O)Nc3cccc(F)c3)ccc21 (stereo not drawn) -11.8%
O=C(NC1CCCCC1)c1ccc2c(c1)N(Cc1ccccc1F)C(=O)c1ccccc1S2 -12%
Cc1cccc(NC(=O)CSc2nnc(CNC(=O)c3cccc(C)c3)n2-c2ccccc2)c1 -8.88%
CCCCn1c(CN2CCN(c3ccc(OC)cc3)CC2)nc2c1c(=O)[nH]c(=O)n2C -14.2%
Cc1ccc(CNC(=O)C2CCN(Cc3nc(-c4ccccc4C)oc3C)CC2)cc1 0.32%
CCN(CCN(C)C)C(=O)Cn1ncc2c([nH]c3ccc(C)cc32)c1=O -5.11%
CN1CCN(c2c(F)cc3c(=O)c(C(=O)O)cn4c3c2OCN4C)CC1 -7%
Cc1ccn2c(Nc3ccccc3C)c(-c3ccncc3)nc2c1 -25.4%
COc1ccc(-c2noc(CN(C(=O)c3ccccc3Cl)C(C)C)n2)cc1 -18%
Cc1ccccc1Cn1c(-c2cccs2)nc2ccccc21 -21.5%
Cc1ccc2nc(CSc3nnc(NC(=O)CC(C)C)s3)cc(=O)n2c1 -2.59%
COC(=O)c1cc(Cl)c(NC(C)=O)cc1OC -25.3%
Cc1ccc(Cn2c(CN3CCC(C(=O)NCc4cccnc4)CC3)cc3ccccc32)cc1 26.9%
CCOc1ccc(CNC(=O)CCC(=O)N2Cc3ccccc3Oc3ncccc32)cc1 2.2%
OC(CCCN1CCCCC1)(c1ccccc1)c1ccccc1 -2.06%
Cc1csc2nc(COC(=O)c3cccc(NC(=O)COc4ccccc4Cl)c3)cc(=O)n12 1.17%
CCN(CC)CCOC(=O)C(c1ccccc1)c1ccccc1 -1.49%
CCc1cccc(NC(=O)Cc2nc(-c3ccc(OC)cc3)no2)c1 -7.21%
COCCCNC(=O)c1nn(C)c2c1CS(=O)(=O)c1ccccc1-2 -4.73%
COc1ccc(-c2cn3c(n2)sc2cc(C(=O)NC(C)C45CC6CC(CC(C6)C4)C5)ccc23)cc1 (stereo not drawn) -8.29%
COC(=O)CCCn1c(-c2ccc(C)cc2)c(C)n2c3c(=O)n(C)c(=O)n(C)c3nc12 19.7%
COc1ccc(CNC(=O)CC2N=C3c4ccccc4N=C(SCC(=O)Nc4ccc(C(C)C)cc4)N3C2=O)cc1 (stereo not drawn) -15.9%
O=C(CSc1nnc2[nH]c(=O)cc(-c3ccccc3)n12)Nc1ccc(OC(F)(F)F)cc1 -0.0195%
COCc1cc(C)nc2sc3c(c12)NC(c1ccccc1C(=O)O)N(c1cccc(C(F)(F)F)c1)C3=O (stereo not drawn) -9.98%
COc1cc([N+](=O)[O-])ccc1NC(=O)c1nc2ccccc2n(C)c1=O -4.77%
Cc1ccc(S(=O)(=O)c2nc(-c3cccc(Br)c3)oc2N2CCCCCC2)cc1 -8.87%
CCOC(=O)C1CCN(S(=O)(=O)c2cc3c4c(c2)C(C)C(=O)N4CCC3)CC1 (stereo not drawn) -6.26%
Cc1cccc(C(=O)Nc2c(C(=O)N3CCN(c4ccc(F)cc4)CC3)oc3ccccc23)c1 -1.04%
CCN(CC)c1cc(C)c2cc(NC(=O)c3cc(OC)cc(OC)c3)ccc2n1 -3.79%
COc1cccc(N2CCN(C(=O)CCSCc3ccccc3F)CC2)c1 -20.6%
O=C(Cc1ccc(Cl)cc1)NCC(c1cccs1)S(=O)(=O)c1ccccc1 (stereo not drawn) -6.91%
CCCSc1ncc(Cl)c(C(=O)Nc2sc(C(C)=O)c(C)c2C(=O)OCC)n1 -2.97%
Cc1cc(=O)n(Cc2c(F)cccc2Cl)c2c1c(C)nn2-c1cccc(F)c1 -9.8%
COc1ccccc1C(=O)Nc1cccc(C(=O)OCc2cc(=O)n3c4c(sc3n2)CCCC4)c1 -26.2%
CCOc1ccc(NC(=O)Cn2c(=O)n(CC3CCC(C(=O)NCCc4ccccc4)CC3)c(=O)c3ccccc32)cc1 (stereo not drawn) -3.51%
COc1ccc(NC(=O)CSc2oc(-c3ccco3)nc2S(=O)(=O)c2ccc(C)cc2)c(OC)c1 -20.6%
CC(=O)Nc1ccc(NC(=O)c2cc(CN3CCCC3)on2)cc1 3.6%
Cc1ccc(C)c(NC(=O)CSc2nnc3[nH]c(=O)cc(-c4ccccc4)n23)c1 -18.3%
COc1cc(C(=O)NC(c2ccccc2Cl)c2cc(Cl)c3cccnc3c2O)cc(OC)c1OC (stereo not drawn) -62.9%
CCOC(=O)c1ccccc1NC(=O)NCc1c(-n2cccc2)sc2c1CCCC2 2.29%
CCOc1ccc(NC(=O)C(CC(C)C)N2Cc3ccccc3C2=O)cc1 (stereo not drawn) -29.4%
CC(C)(C)OC(=O)N1CCC(N2CCN(Cc3ccccc3)C(=O)C2=O)CC1 -3.63%
Cc1onc(-c2ccccc2Cl)c1C(=O)Oc1ccccc1F -10.7%
CN(C)S(=O)(=O)c1ccc2c(c1)N(CC(=O)Nc1cccc(C(F)(F)F)c1)C(=O)CS2 -0.249%
Cc1c(CNC(C)CCc2ccccc2)c(C(=O)O)c(C)n1Cc1ccc(F)cc1 (stereo not drawn) -9.64%
CC(C)c1ccc(OCC(=O)Nc2cc(-c3ccccc3)no2)cc1 33.7%
